Data: a compilation of properties of binary mixtures (doi:10.1007/s11426-012-4655-1)
The densities may have been worked out from excess volumes.

Assay: xn = mol fraction of the nth substance listed
Settings: 101 kPa

CCCCCCCCn1cc[n+](C)c1.F[B-](F)(F)F + CCCCCCCCn1cc[n+](C)c1.[Cl-]
mass density [kg/m3]
Settings | 303.15 K | 308.15 K | 313.15 K | 318.15 K | 323.15 K | 328.15 K | 333.15 K
x2 = 0 | – | 1096.8 | 1093.5 | 1090.2 | 1086.8 | 1083.5 | –
x2 = 0.2 | 1083.3 | 1080 | 1076.7 | 1073.4 | 1070.3 | 1067.1 | 1063.9
x2 = 0.4 | – | 1062.3 | 1059.1 | 1055.9 | 1052.8 | 1049.6 | 1046.6
x2 = 0.6 | 1046.9 | 1043.8 | 1040.7 | 1037.7 | 1034.6 | 1031.6 | 1028.5
x2 = 0.8 | 1027.5 | 1024.5 | 1021.6 | – | 1015.7 | 1012.7 | 1009.8

CCCCCC[n+]1ccn(C)c1.F[P-](F)(F)(F)(F)F + CCCCCC[n+]1ccn(C)c1.[Cl-]
mass density [kg/m3]
Settings | 303.15 K | 308.15 K | 313.15 K | 318.15 K | 323.15 K | 328.15 K | 333.15 K
x2 = 0 | 1289.5 | – | 1281.5 | 1277.6 | 1273.7 | 1269.9 | 1266
x2 = 0.2 | – | 1242.9 | 1239.2 | 1235.4 | 1231.6 | – | 1224.3
x2 = 0.4 | – | 1196.9 | 1193.4 | – | 1186.3 | 1182.8 | 1179.4
x2 = 0.6 | 1150.4 | 1147.1 | 1143.8 | 1140.5 | – | 1133.9 | 1130.6
x2 = 0.8 | 1096 | 1092.9 | – | 1086.7 | 1083.7 | 1080.7 | 1077.6

CCCCCCCCn1cc[n+](C)c1.[Cl-] + CCCCCCCCn1cc[n+](C)c1.F[B-](F)(F)F
x1 = 1
Settings | mass density [kg/m3]
303.15 K | 1007.2
308.15 K | 1004.4
313.15 K | 1001.5
323.15 K | 995.8
333.15 K | 990.2
